Measured values published in PubChem BioAssay AID1508623 (National Center for Advancing Translational Sciences (NCATS), 2021).
Out of some 48,000 compounds screened, about 450 (0.94%) were called active. Roughly 19% stayed inconclusive and do not appear here. Calls follow the shape of the dose curve; as a rule, active = well fitted inhibition curve with a large enough effect; inconclusive = small, poorly fitted or top-dose-only effect; inactive = no such curve, though single readings can be large or run the other way. The list shows a part of the results.

Experiment: Primary qHTS for Identification of Small Molecule Inhibitors of Huntingtin Promoter Activity; also: nearly all actives have a fitted effect of over 50% in size
Conditions: HEK293 HTT promoter firefly luciferase reporter (activity 0% = vehicle and -100% = no light), 24 h; series mostly up to 57.5 µM; activity change, negative = inhibition: at the top concentration
Procedure, shortened: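 HEK293 Fluc reporter, 2,500 cells/well, 24 h pre-culture; cpds up to 57.5 uM final, 24 h 37 degrees C; Dual-Glo, 10 min RT; normalized vehicle = 0%, zero RLU = -100%.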

Activity change, negative = inhibition, inactive:
Cc1c(-c2ccccc2)n(-c2ccc(Cl)cc2)c2nc3c(c(=O)n(C)c(=O)n3C)n12 -6.35%
CCCCC(=O)N1c2ccccc2C(C)(c2ccccc2)CC1(C)C (stereo not drawn) -9.24%
Cc1cccc(CNC(=O)c2cnc3c(-c4cccc(C)c4)c(C)nn3c2C)c1 -20.1%
COc1ccc(OC)c(CCNc2ncnc3onc(-c4ccc(Cl)cc4)c23)c1 -26.4%
CCc1ccc(S(=O)(=O)NCCc2cn3ccsc3n2)cc1 -11.5%
Cn1c(=O)c2cc(S(=O)(=O)NC(Cc3ccccc3)C(=O)Nc3ccc(F)cc3)ccc2n(C)c1=O (stereo not drawn) -13.2%
CCOc1cc2ncc(C#N)c(Nc3ccc(F)c(Cl)c3)c2cc1NC(=O)C=CCN(C)C -5.92%
O=C(c1ccccc1Cl)n1nc(-c2ccco2)nc1NCc1cccs1 7.47%
Cc1ccccc1Cn1c2ccccc2c2cnn(CC(=O)NCc3cccc(Cl)c3)c(=O)c21 -24.4%
CCOC(=O)c1ccc(CN(Cc2ccc(F)cc2)S(=O)(=O)c2ccc(F)c(C(=O)Nc3cc(Cl)ccc3OC)c2)cc1 -12.1%
Cc1ccc(N2CCN(C(=O)c3c(C)oc4ncn(C)c(=O)c34)CC2)c(C)c1 11.8%
Cc1ccc(NC(=O)CSc2nc3c(oc4ccccc43)c(=O)n2Cc2ccco2)cc1F -10.7%
Cc1nc(-n2nc(C)c(Cc3ccc(Cl)cc3)c2C)sc1C(=O)N1CCC(C)CC1 -3.53%
CC(C)c1ccc(OCC(=O)Nc2ccc(S(=O)(=O)Nc3ncccn3)cc2)cc1 -7.67%
Cn1cc(-c2cc3n(n2)CCC(=O)N3CCCC(=O)Nc2ccc(Cl)cc2)c2ccccc21 -18.5%
CC(C)OC(=O)c1c(NC(=O)c2cccc(C(F)(F)F)c2)sc2c1CCCC2 0.786%
O=C1CC(c2ccccc2)Sc2ccccc2N1Cc1ccccc1F (stereo not drawn) -26.8%
COc1ccc(NC(=O)Cn2ccn(-c3ccc(F)c(F)c3)c(=O)c2=O)cc1Cl 2%
CN(C)CCCSc1ccccc1NC(=O)/C=C/c1ccccc1 0.964%
COc1cccc(CNC(=O)c2sc3nc[nH]c(=O)c3c2C)c1 -2.31%
COc1ccc(CNC(=O)CCC2N=C3c4ccccc4N=C(SCC(=O)NCCc4ccc(OC)c(OC)c4)N3C2=O)cc1 (stereo not drawn) -13.7%
CN[C@H]1[C@@H](O[C@@H]2[C@H](O[C@@H]3[C@@H](O)[C@@H](O)[C@@H](N=C(N)N)[C@@H](O)[C@@H]3N=C(N)N)O[C@H](C)[C@@]2(O)C=O)O[C@@H](CO)[C@@H](O)[C@H]1O 7.17% [at 19.1 µM]
COc1ccc(C)c2sc(NC(=O)c3ccc(S(=O)(=O)N4CCOCC4)cc3)nc12 -1.37%
COc1cccc(N2CCN(C(=O)c3cnc4c(-c5ccc(F)cc5)c(C)nn4c3C)CC2)c1 -18.2%
COc1ccc(C2Nc3ccccc3-c3cc(C)nn32)c(OC)c1 (stereo not drawn) -2.13%
COC(=O)c1ccccc1NS(=O)(=O)c1cc2c3c(c1)CC(=O)N3CCC2 -21.5%
CCN(CC)S(=O)(=O)c1ccc2c(c1)N(CC(=O)Nc1ccc(Cl)cc1)C(=O)C1CCCN21 (stereo not drawn) -16%
CC1=C(C(=O)Nc2cc3cn[nH]c3cc2F)C(c2ccc(Cl)cc2F)N=C(c2ccnc(Cl)c2)N1 (stereo not drawn) -24.7%
CCOc1ccc2nc(N(Cc3cccnc3)C(=O)c3cccs3)sc2c1 27.6%
COc1cccc(-c2nc(Cn3c(=O)cc(C)c4c(C)nn(-c5ccccc5)c43)c(C)o2)c1OC -30%
CCCCCOc1ccc(NC(=O)Cn2c(-c3nonc3N)nc3ccccc32)cc1 -15%
COc1ccc(-c2nc3ccccc3n2Cc2ccccc2)cc1 -29.7%
CC1=C(C(=O)Nc2ccccc2)C(c2ccccn2)n2nc(SCc3ccccc3)nc2N1 (stereo not drawn) -12.1%
Cc1ccc(-n2nc(C)c3c(C(=O)Nc4ccccc4C(F)(F)F)cc(C)nc32)cc1 -27%
CCCN(C(=O)c1cc2c(=O)oc3ccc(C)cc3c2s1)c1ccc(OCC)cc1 -12.4%
CCSc1nc(-c2cccc(Cl)c2)nc2c1Cc1c(CO)cnc(C)c1O2 -6.36%
COc1cccc(CNC(=O)Cn2nc(C)n3c(cc4cc(C)ccc43)c2=O)c1OC -2.31%
CCc1nn(CC(=O)N2CCN(c3cccc(C)c3)C(C)C2)c(=O)c2cc3sccc3n12 (stereo not drawn) -8.78%
CCOCCCNC(=O)C(c1ccc(C)cc1)N(Cc1ccc2c(c1)OCO2)C(=O)c1ccccc1O (stereo not drawn) -13.6%
O=C(CSc1nnc2scc(-c3ccc(Cl)cc3)n12)Nc1ccc(F)cc1 -11.1%
COc1ccccc1C(=O)NC1(C(F)(F)F)NC(=O)N(CCc2ccccc2)C1=O (stereo not drawn) -9.79%
COC(=O)[C@H]1[C@H]2C[C@@H]3c4[nH]c5cc(OC)ccc5c4CCN3C[C@H]2C[C@@H](OC(=O)c2cc(OC)c(OC)c(OC)c2)[C@@H]1OC -7.11%
Cc1ccc(Nc2c(-c3cccnc3)nc3ccc(C)cn23)cc1 -20.1%
O=C(CSc1nc2c([nH]c3ccccc32)c(=O)n1-c1ccccc1)Nc1cccc(C(F)(F)F)c1 -24.3%
Cc1ccc(N(C)C(=O)Cn2ncc3c([nH]c4ccccc43)c2=O)cc1C -2.52%
COC(=O)c1cc(-c2ccc(Cl)cc2)c2c(=O)[nH]c(=O)n(C)c2n1 -11.2%
CCOCCCNC(=O)C1CCN(c2nc3ccc(C)cc3[nH]2)CC1 11%
COc1ccc(NC(=O)CCc2c(C)nn(-c3ccc(N4CCCC4)nn3)c2C)cc1Cl 63.6%
Cc1ccc(Cn2c(=O)n(CCc3ccccc3)c(=O)c3sc4ccccc4c32)cc1 14.9%
COc1ccc(N2CCN(C(=O)Cn3cnc4sc(C)c(S(=O)(=O)N5CCCCC5)c4c3=O)CC2)cc1 -9.49%
Cc1ccc(NC(=O)CCn2cccn2)c(C)c1 7.31%
Cc1ccc(S(=O)(=O)NC(=O)NC2CCCCCCC2)cc1 7.27%
O=C(CSc1cn(CCNC(=O)c2ccccc2F)c2ccccc12)Nc1ccc2c(c1)OCCO2 -5.85%
COCCn1c(C)cc(O)c(C(c2ccccc2)N2CCN(c3ccccc3F)CC2)c1=O (stereo not drawn) -6.65%
C=CCc1ccc(O)c(-c2ccc(O)c(CC=C)c2)c1 -14.3%
COc1cc([C@@H]2c3cc4c(cc3[C@H](O)[C@H]3COC(=O)[C@H]23)OCO4)cc(OC)c1OC
O=C(O)CN(CCOCCOCCN(CC(=O)O)CC(=O)O)CC(=O)O -3.32% [at 0.739 µM]
CC(Nc1ccc(-c2nc(-c3cccnc3)no2)cc1[N+](=O)[O-])c1ccccc1 (stereo not drawn) -4.76%
COc1ccccc1-c1nc(CNC(=O)NC2CCCCC2)c(C)o1 -4.52%
Cc1ccc(NC(=O)CCn2nc(C)c3c(C)n(-c4ccccc4)nc3c2=O)cc1Cl -7.66%
CC1CCCCN1Cc1nc2c(c(=O)n(C)c(=O)n2C)n1Cc1ccc(Br)cc1 (stereo not drawn) -0.816%
COc1ccc(NC(=O)c2c(-c3ccc(C)cc3)nnc3ccccc23)cc1OC 12.8%
Cc1ccc2c(Sc3ccc(Cl)cc3)c(C(=O)N3CCCCC3)[nH]c2c1 -20.3%
CC(C)C[C@H](NC(=O)[C@@H](O)[C@H](N)Cc1ccccc1)C(=O)O -14.2%
CC(C)c1ccc(NC(=O)c2cn(C3CCCC3)c(=O)c3c2c2ccccc2n3C)cc1 -26.5%
Cc1ccc(CNC(=O)Cn2nc(C)n3cccc3c2=O)cc1 2.42%
Cc1ccc(-n2ncc(C(=O)N3CCN(c4cccc(C)c4)C(C)C3)c2C2CCN(C(=O)OC(C)(C)C)CC2)cc1 (stereo not drawn) -4.15%
Cc1nn(CCCC(=O)NCc2ccc(F)cc2)c(=O)c2c1sc1ccccc12 9.44%
CCN1CCSc2ccc(C(=O)NC(C)c3ccccc3)cc21 (stereo not drawn) -15.6%
CCOc1ccc2nc(NC(=O)c3cc(=O)c4ccc(C)cc4o3)sc2c1 5.37%
Cc1cc(C)cc(C(=O)Nc2ccc(-c3nc4ncccc4o3)cc2)c1 10.2%
COc1c(C)cc(S(=O)(=O)NCCc2c(C)[nH]c3ccccc23)c(C)c1C -5.36%
CCOC(=O)c1ccc(NC(=O)CCCc2nc(-c3ccccc3Cl)no2)cc1 -18.9%
CCOc1ccc(-c2cc(NC(=O)Nc3cccc(C(C)=O)c3)c(C(=O)OC)s2)cc1 70.7%
COc1ccc(OC)c(NC(=O)C2CCCN(S(=O)(=O)c3c(C)nn(C)c3C)C2)c1 (stereo not drawn) -7.88%
Cc1ccc(NC(=O)c2cnn3c(C(F)F)cc(-c4ccccc4)nc23)c(C)c1 -13.1%
Cc1ccc(NC(=O)Nc2nnc(N(CC(C)C)CC(C)C)s2)cc1Cl 15.5%
COc1cccc(N2CCN(C(=O)C(CCSC)NS(=O)(=O)c3ccc4c(c3)oc(=O)n4C)CC2)c1 (stereo not drawn) 0.338%
O=C(O)c1ccc2c(c1)ncn2-c1ccc(F)c(F)c1 1%
COc1ccc(NC(=O)C2=C(C)Nc3ncnn3C2c2ccc(O)cc2)cc1 (stereo not drawn) -8.39%
COc1ccc(OC)c(NC(=O)c2cc3c(=O)oc4ccccc4c3s2)c1 -4.55%
CCN(CC)c1nn2c(=O)c(C(=O)NCCc3ccccc3)cnc2s1 6.8%
Cc1ccc(C)c(NC(=O)c2ccc3c(O)c(S(=O)(=O)c4ccc(Cl)cc4)c(=O)[nH]c3c2)c1 -6.37%
Cc1cc2c(cc1S(=O)(=O)NCc1ccccc1Cl)OCCN2C -2.61%
CCCCSCCCNC(=O)CN1C(=O)c2cccnc2Oc2ccc(Cl)cc21 2.58%
Fc1ccc(-c2noc3ncnc(N4CCN(c5ccccc5)CC4)c23)cc1 -25.3%
COc1ccc(S(=O)(=O)N2CCN(c3ccccc3F)CC2)cc1-c1noc(C)n1 7.89%
O=C(NCc1ccc(F)cc1)c1ccc2c(Cl)c3c(nc2c1)CCCC3 -19.3%
CCOC(=O)c1ccccc1NC(=O)C(=O)Nc1ccc2nc3n(c(=O)c2c1)CCCCC3 -21%
COc1ccc(NC(=O)C2CCN(S(=O)(=O)c3ccc4[nH]c(=O)ccc4c3)CC2)c(OC)c1 -6.54%
Cc1cn2c(=O)cc(COc3cccc(NC(=O)c4ccccc4C)c3)nc2s1 -15.3%
COc1ccc(OC)c(NC(=O)Cc2coc3ccc(C(C)C)cc23)c1 -30.4%
CCOC(=O)c1[nH]c(C)c(CCC(=O)NCc2ccccc2)c1C -8.49%
